From publication PMC3268813 (Scientific Reports, 2012)

B1: GFP-tagged full-length CRN2 S463A (natural protein)
chain: not shown
B2: GFP-tagged full-length CRN2 S463D (natural protein)
chain: not shown
B3: full-length human GST-His6-tagged CRN2 S463D purified from insect cells (natural protein)
chain: not shown

Molecular target: the molecule itself
Assay: SEC

Row | Protein | stoichiometry N
1 | B1 | 3
2 | B2 | 3
3 | B3 | 3
